These results are taken from PubChem BioAssay AID1963576 (National Center for Advancing Translational Sciences (NCATS), 2024).

Structures are written as SMILES. The campaign covered roughly 46,000 compounds. About 60 (0.1%) were called active. Not shown: some 3% with an inconclusive outcome. The call rests on the fitted dose curve; in most records, active means well fitted inhibition curve with a large enough effect; inconclusive means small, poorly fitted or top-dose-only effect; inactive means no such curve, though single readings can be large or run the other way. Some of the results follow.

This experiment can be described thus: Primary qHTS assay for Inhibitors of ovarian cancer metastasis using an organotypic tumor microenvironment (TME) model. Further: nearly all actives have a fitted effect of over 65% in size.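 On activity change, negative = inhibition: plate controls were DMSO wells for no effect and tomatine positive control wells for full effect.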 Particulars: SKOV3ip1-GFP adhesion/invasion on 3D omental model, fluorescence; series mostly up to 45.8 µM; activity change, negative = inhibition: at the top concentration. Put shortly:
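Adhesion/invasion was scored as fixed GFP-labeled SKOV3ip1 cell counts (488/509 nm), normalized to DMSO and tomatine controls. Cancer cells in serum-free medium, with four compound doses (0.36-46 umol/L), sat 2 hr at RT then 16 hr at 37 C on a 48 hr fibroblast/mesothelial/ECM culture.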
A general note: Quantitative high-throughput screening tests each substance at several concentrations.
Consider `O=C(Cn1cc(S(=O)(=O)Cc2ccc(F)cc2)c2ccccc21)NCCc1ccccc1`, for which the “activity change, negative = inhibition” value was inactive: -0.728%.

As for `Cc1ccc(NC(=O)c2ccc(NC(=O)N3CCSc4ncccc43)cc2)cc1Cl`, the “activity change, negative = inhibition” value was inactive: 4.03%.

In the case of `CCc1ccc(-n2nc3cc(C)c(NC(=O)c4cc(Cl)ccc4OC)cc3n2)cc1`, the “activity change, negative = inhibition” value was inactive: -9.16%.

Turning to `CCC(C)NC(=O)Cn1c(=O)n(Cc2ccc(C(=O)NCCCOC)cc2)c(=O)c2ccccc21` (stereo not drawn), the “activity change, negative = inhibition” value is inactive: 0.919%.

As for `Cc1ccc(NC(=O)c2c(N3CCCC3=O)c3cc(C)ccc3n2C)c(C)c1`, the “activity change, negative = inhibition” value is inactive: -3.06%.

As for `CCCN(C(=O)Cn1ncc2c(=O)oc3ccccc3c21)c1cccc(C)c1`, the result was inactive.

As to `CCCCOC(=O)c1ccc(NS(=O)(=O)c2c(C)nc3scc(C)n3c2=O)cc1`, the compound was called inactive.

In the case of `COc1ccccc1Nc1cc(C)nc2nc(-c3ccccc3)nn12`, the outcome was inactive.

Regarding `Cc1ccc(CNC(=O)Cn2ncc3c(C)n(Cc4ccc(Cl)cc4)c(C)c3c2=O)cc1`, the call was inactive.

For `COc1ccc(OCCn2c(C3CC(=O)N(c4ccc(F)cc4)C3)nc3ccccc32)cc1` (stereo not drawn), the “activity change, negative = inhibition” value was inactive: -5.33%.

As for `COc1ccc(Nc2cc(C(=O)NCCc3ccccc3)c3ccccc3n2)cc1OC`, the “activity change, negative = inhibition” value is inactive: 0.646%.

For `CSc1ccc(CNCc2c(C(=O)O)c(C)n(Cc3ccc(F)cc3Cl)c2C)cc1`, the “activity change, negative = inhibition” value was inactive: 1.51%.

In the case of `Cc1ccc(Cl)c2sc(N3CCN(C(=O)C4CC4)CC3)nc12`, the “activity change, negative = inhibition” value was inactive: 3.68%.

Regarding `CC(C)c1ccc(NC(=O)CSc2ncc3c(n2)-c2ccccc2N(C)S3(=O)=O)cc1`, the “activity change, negative = inhibition” value is inactive: -8.14%.

With `COC(=O)c1c(NC(=O)c2ccc(S(=O)(=O)N3CCCC(C)C3)cc2)sc2c1CCN(C(C)C)C2` (stereo not drawn), the call was inactive.

As to `COc1cccc(N2CCN(C(=O)C3CCCN(S(=O)(=O)c4ccc(Br)s4)C3)CC2)c1` (stereo not drawn), the “activity change, negative = inhibition” value is inactive: -1.44%.

For the compound `Cc1c(NC(=O)c2nc3ccccc3n(C)c2=O)cccc1[N+](=O)[O-]`, the compound was classed as inactive.

On to `Cc1ccccc1Cn1cc(S(=O)(=O)c2ccc(Cl)cc2)c(=O)c2cc3c(cc21)OCO3`, for which the “activity change, negative = inhibition” value was inactive: 11.6%.

Consider `Cc1ccccc1CNC(=O)c1c(C)oc2c1C1=NCCN1C=N2`, for which the “activity change, negative = inhibition” value was inactive: -9.23%.

On to `Cc1ccc2oc(=O)c3cnn(CC(=O)NCc4ccccc4Cl)c3c2c1`, for which the “activity change, negative = inhibition” value was inactive: 10.8%.

Turning to `O=C(Cn1c(=O)n2nc(-c3ccccc3)nc2c2ccccc21)Nc1ccccc1C(F)(F)F`, the “activity change, negative = inhibition” value is inactive: -1.19%.

Take `Nc1ncc(S(=O)(=O)NCc2cccc(Cl)c2)cn1`: the “activity change, negative = inhibition” value was inactive: -3.66%.

Turning to `O=C1[C@@H]2CSC(c3ccc(F)cc3)N2C(=O)N1c1ccc(Cl)cc1` (stereo partly drawn), the “activity change, negative = inhibition” value was inactive: -7.69%.

`COc1ccc(CNC(=O)c2cccc(N3CCCS3(=O)=O)c2)cc1`: the “activity change, negative = inhibition” value was inactive: 0.461%.

`COc1ccc(S(=O)(=O)N(Cc2nc(-c3ccc(C)cc3)no2)C2CCCCC2)cc1`: the “activity change, negative = inhibition” value is inactive: -6.67%.

Turning to `Cc1ccc(C)n1-c1nnc(N2CCC(C(=O)NCc3ccccc3Cl)CC2)s1`, the outcome was inactive.

On to `Cc1ccc(-c2nc(CCNC(=O)C(=O)Nc3ccc(C)c(C)c3)cs2)cc1`, for which the “activity change, negative = inhibition” value was inactive: -6.64%.

As to `Cc1ccc(-c2nc3scc(CCNC(=O)c4cccc(Br)c4)n3n2)cc1`, the “activity change, negative = inhibition” value was inactive: -16.3%.

Consider `CS(=O)(=O)c1ccc2nc(NC(=O)CS(=O)(=O)c3ccc(Cl)cc3)sc2c1`, for which the “activity change, negative = inhibition” value was inactive: -3%.

Turning to `CCOC(=O)CNC(=O)Nc1cc(C(=O)NCc2cccc(F)c2)ccc1N1CCCC1`, the “activity change, negative = inhibition” value was inactive: 2.29%.

On to `CC(=O)c1cc(-c2ccc(F)cc2)n(CCC(=O)NCc2ccccc2C)c1C`, for which the “activity change, negative = inhibition” value is inactive: -6.43%.

As to `COc1ccc(NC(=O)c2ccc3nc(CCc4ccccc4)oc3c2)cc1`, the “activity change, negative = inhibition” value was inactive: -8.6%.

Take `CCCCC12CN3CC(C)(CN(C1)C3c1cc(Br)ccc1O)C2=O` (stereo not drawn): the “activity change, negative = inhibition” value was inactive: 4.12%.

In the case of `COc1cc2c(-c3ccccc3C)nc3c(c(C)nn3-c3ccccc3)c2cc1OC`, the “activity change, negative = inhibition” value is inactive: -26.5%.

For the compound `O=C(Nc1ccc2nc(SCC(=O)N3CCCC3)sc2c1)c1ccccc1`, the “activity change, negative = inhibition” value was inactive: -8.03%.

In the case of `CCOc1cc(C(=O)Nc2ccc(-c3nc4cc(C)ccc4o3)cc2)cc(OCC)c1OCC`, the result was inactive.

As to `O=C(Cn1c(=O)n(Cc2ccco2)c(=O)c2cccnc21)Nc1ccccc1F`, the “activity change, negative = inhibition” value was inactive: 0.825%.

As to `CCCN(CCC)C(=O)Cn1c(=O)n(-c2cccc(C(F)(F)F)c2)c(=O)c2c(C)c(C)sc21`, the call was inactive.

On to `O=C(NCC(c1cccnc1)N1CCc2ccccc21)c1ccccc1Br` (stereo not drawn), for which the “activity change, negative = inhibition” value is inactive: -1.94%.

Regarding `Cc1ccc(NC2=C(c3ccc(C(F)(F)F)cc3)C(=O)c3ccccc32)cc1F`, the “activity change, negative = inhibition” value was inactive: 4.5%.

For the compound `Cc1ccc(N2CCN(c3nc4ccc(C)cc4n4nnnc34)CC2)c(C)c1`, the “activity change, negative = inhibition” value was inactive: -11.1%.

As to `COc1cc(C(=O)Nc2ccc3nn(-c4ccc(F)cc4)nc3c2)cc(OC)c1OC`, the “activity change, negative = inhibition” value is inactive: -1.57%.

Turning to `CCOC(=O)c1noc2nc(C)n(CC(=O)Nc3cc(Cl)ccc3OC)c(=O)c12`, the “activity change, negative = inhibition” value was inactive: -3.94%.

As to `CCCCn1c(=O)n(-c2ccc(Br)cc2F)c(=O)c2c3c(sc21)CN(C(C)=O)CC3`, the “activity change, negative = inhibition” value is inactive: -7.19%.

As for `COc1ccc(CNC(=O)Cn2c(SCC(=O)N(C)c3ccccc3)nc3ccccc32)cc1`, the “activity change, negative = inhibition” value was inactive: -0.432%.

Regarding `Cc1ccc(OCC(=O)Nc2c(C(=O)c3ccccc3)oc3ccccc23)cc1C`, the “activity change, negative = inhibition” value is inactive: 4.3%.

`Oc1c(C(c2ccccc2)N2CCN(Cc3ccccc3)CC2)sc2nc(-c3ccco3)nn12` (stereo not drawn): the “activity change, negative = inhibition” value is inactive: 1.08%.

On to `Cc1ccc(CNC(=O)C2CCN(S(=O)(=O)N3CCC(C)CC3)CC2)cc1`, for which the “activity change, negative = inhibition” value was inactive: -5.76%.
